Each binder was assayed against T1, human FcRn (soluble human FcRn complexed with β2-microglobulin) (human, UniProt P61769 in part, limits assumed) (assay: SPR, pH 7.0;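 also: antibodies captured on a Protein L sensor chip with human FcRn injected as analyte, KD calculated from fitted association and dissociation rate constants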).
T1 construct: also called hFcRn

Row | Kd | Binder
1 | 0.17 µM | IgG1-F12 (antibody, EU numbering; copies: 2 + 2) heavy: QVQLQESGPGLVKPSETLSLTCAVSGHSISHDHAWSWVRQPPGEGLEWIGFISYSGITNYNPSLQGRVTISRDNSKNTLYLQMNSLRAEDTAVYYCARSLARTTAMDYWGEGTLVTVSS[here human IgG1 constant region with M252Y N434W (EU numbers) without letters] light: DIQMTQSPSSLSASVGDRVTITCRASQDISSYLNWYQQKPGKAPKLLIYYTSRLHSGVPSRFSGSGSGTDFTFTISSLQPEDIATYYCQQGNTLPYTFGQGTKVEIKRTVAAPSVFIFPPSDEQLKSGTASVVCLLNNFYPREAKVQWKVDNALQSGNSQESVTEQDSKDSTYSLSSTLTLSKADYEKHKVYACEVTHQGLSSPVTKSFNRGEC
2 | 1 µM | IgG1-F26 (antibody, EU numbering; copies: 2 + 2) heavy: QVQLQESGPGLVKPSETLSLTCAVSGHSISHDHAWSWVRQPPGEGLEWIGFISYSGITNYNPSLQGRVTISRDNSKNTLYLQMNSLRAEDTAVYYCARSLARTTAMDYWGEGTLVTVSS[here human IgG1 constant region with I332V (EU numbers) without letters] light: DIQMTQSPSSLSASVGDRVTITCRASQDISSYLNWYQQKPGKAPKLLIYYTSRLHSGVPSRFSGSGSGTDFTFTISSLQPEDIATYYCQQGNTLPYTFGQGTKVEIKRTVAAPSVFIFPPSDEQLKSGTASVVCLLNNFYPREAKVQWKVDNALQSGNSQESVTEQDSKDSTYSLSSTLTLSKADYEKHKVYACEVTHQGLSSPVTKSFNRGEC
3 | 0.46 µM | IgG1-F20 (antibody, copies: 2 + 2) heavy: QVQLQESGPGLVKPSETLSLTCAVSGHSISHDHAWSWVRQPPGEGLEWIGFISYSGITNYNPSLQGRVTISRDNSKNTLYLQMNSLRAEDTAVYYCARSLARTTAMDYWGEGTLVTVSS[here human IgG1 constant region with V308F N434Y (EU numbers) without letters] light: DIQMTQSPSSLSASVGDRVTITCRASQDISSYLNWYQQKPGKAPKLLIYYTSRLHSGVPSRFSGSGSGTDFTFTISSLQPEDIATYYCQQGNTLPYTFGQGTKVEIKRTVAAPSVFIFPPSDEQLKSGTASVVCLLNNFYPREAKVQWKVDNALQSGNSQESVTEQDSKDSTYSLSSTLTLSKADYEKHKVYACEVTHQGLSSPVTKSFNRGEC
4 | 2.8 µM | IgG1-F31 (antibody, EU numbering; copies: 2 + 2) heavy: QVQLQESGPGLVKPSETLSLTCAVSGHSISHDHAWSWVRQPPGEGLEWIGFISYSGITNYNPSLQGRVTISRDNSKNTLYLQMNSLRAEDTAVYYCARSLARTTAMDYWGEGTLVTVSS[here human IgG1 constant region with G237M V308F (EU numbers) without letters] light: DIQMTQSPSSLSASVGDRVTITCRASQDISSYLNWYQQKPGKAPKLLIYYTSRLHSGVPSRFSGSGSGTDFTFTISSLQPEDIATYYCQQGNTLPYTFGQGTKVEIKRTVAAPSVFIFPPSDEQLKSGTASVVCLLNNFYPREAKVQWKVDNALQSGNSQESVTEQDSKDSTYSLSSTLTLSKADYEKHKVYACEVTHQGLSSPVTKSFNRGEC
5 | 0.32 µM | IgG1-F13 (antibody, EU numbering; copies: 2 + 2) heavy: QVQLQESGPGLVKPSETLSLTCAVSGHSISHDHAWSWVRQPPGEGLEWIGFISYSGITNYNPSLQGRVTISRDNSKNTLYLQMNSLRAEDTAVYYCARSLARTTAMDYWGEGTLVTVSS[here human IgG1 constant region with M252W N434Y (EU numbers) without letters] light: DIQMTQSPSSLSASVGDRVTITCRASQDISSYLNWYQQKPGKAPKLLIYYTSRLHSGVPSRFSGSGSGTDFTFTISSLQPEDIATYYCQQGNTLPYTFGQGTKVEIKRTVAAPSVFIFPPSDEQLKSGTASVVCLLNNFYPREAKVQWKVDNALQSGNSQESVTEQDSKDSTYSLSSTLTLSKADYEKHKVYACEVTHQGLSSPVTKSFNRGEC
6 | 0.28 µM | IgG1-F34 (antibody, EU numbering; copies: 2 + 2) heavy: QVQLQESGPGLVKPSETLSLTCAVSGHSISHDHAWSWVRQPPGEGLEWIGFISYSGITNYNPSLQGRVTISRDNSKNTLYLQMNSLRAEDTAVYYCARSLARTTAMDYWGEGTLVTVSS[here human IgG1 constant region with T256E N434W (EU numbers) without letters] light: DIQMTQSPSSLSASVGDRVTITCRASQDISSYLNWYQQKPGKAPKLLIYYTSRLHSGVPSRFSGSGSGTDFTFTISSLQPEDIATYYCQQGNTLPYTFGQGTKVEIKRTVAAPSVFIFPPSDEQLKSGTASVVCLLNNFYPREAKVQWKVDNALQSGNSQESVTEQDSKDSTYSLSSTLTLSKADYEKHKVYACEVTHQGLSSPVTKSFNRGEC
7 | 0.46 µM | IgG1-F19 (antibody, EU numbering; copies: 2 + 2) heavy: QVQLQESGPGLVKPSETLSLTCAVSGHSISHDHAWSWVRQPPGEGLEWIGFISYSGITNYNPSLQGRVTISRDNSKNTLYLQMNSLRAEDTAVYYCARSLARTTAMDYWGEGTLVTVSS[here human IgG1 constant region with P257L N434Y (EU numbers) without letters] light: DIQMTQSPSSLSASVGDRVTITCRASQDISSYLNWYQQKPGKAPKLLIYYTSRLHSGVPSRFSGSGSGTDFTFTISSLQPEDIATYYCQQGNTLPYTFGQGTKVEIKRTVAAPSVFIFPPSDEQLKSGTASVVCLLNNFYPREAKVQWKVDNALQSGNSQESVTEQDSKDSTYSLSSTLTLSKADYEKHKVYACEVTHQGLSSPVTKSFNRGEC
8 | 2.3 µM | IgG1-F33 (antibody, EU numbering; copies: 2 + 2) heavy: QVQLQESGPGLVKPSETLSLTCAVSGHSISHDHAWSWVRQPPGEGLEWIGFISYSGITNYNPSLQGRVTISRDNSKNTLYLQMNSLRAEDTAVYYCARSLARTTAMDYWGEGTLVTVSS[here human IgG1 constant region with S254T N434Y (EU numbers) without letters] light: DIQMTQSPSSLSASVGDRVTITCRASQDISSYLNWYQQKPGKAPKLLIYYTSRLHSGVPSRFSGSGSGTDFTFTISSLQPEDIATYYCQQGNTLPYTFGQGTKVEIKRTVAAPSVFIFPPSDEQLKSGTASVVCLLNNFYPREAKVQWKVDNALQSGNSQESVTEQDSKDSTYSLSSTLTLSKADYEKHKVYACEVTHQGLSSPVTKSFNRGEC
9 | 7.4 µM | IgG1-F27 (antibody, EU numbering; copies: 2 + 2) heavy: QVQLQESGPGLVKPSETLSLTCAVSGHSISHDHAWSWVRQPPGEGLEWIGFISYSGITNYNPSLQGRVTISRDNSKNTLYLQMNSLRAEDTAVYYCARSLARTTAMDYWGEGTLVTVSS[here human IgG1 constant region with G237M (EU numbers) without letters] light: DIQMTQSPSSLSASVGDRVTITCRASQDISSYLNWYQQKPGKAPKLLIYYTSRLHSGVPSRFSGSGSGTDFTFTISSLQPEDIATYYCQQGNTLPYTFGQGTKVEIKRTVAAPSVFIFPPSDEQLKSGTASVVCLLNNFYPREAKVQWKVDNALQSGNSQESVTEQDSKDSTYSLSSTLTLSKADYEKHKVYACEVTHQGLSSPVTKSFNRGEC
10 | 0.8 µM | IgG1-F32 (antibody, EU numbering; copies: 2 + 2) heavy: QVQLQESGPGLVKPSETLSLTCAVSGHSISHDHAWSWVRQPPGEGLEWIGFISYSGITNYNPSLQGRVTISRDNSKNTLYLQMNSLRAEDTAVYYCARSLARTTAMDYWGEGTLVTVSS[here human IgG1 constant region with S254T N434W (EU numbers) without letters] light: DIQMTQSPSSLSASVGDRVTITCRASQDISSYLNWYQQKPGKAPKLLIYYTSRLHSGVPSRFSGSGSGTDFTFTISSLQPEDIATYYCQQGNTLPYTFGQGTKVEIKRTVAAPSVFIFPPSDEQLKSGTASVVCLLNNFYPREAKVQWKVDNALQSGNSQESVTEQDSKDSTYSLSSTLTLSKADYEKHKVYACEVTHQGLSSPVTKSFNRGEC
